Source: PubChem BioAssay AID504332 (National Center for Advancing Translational Sciences (NCATS), 2011)
Several values for one entry are separate records, joined by “and”; a condition that tells them apart may be missing. Identical values can stand only once. Screen size: about 350,000 compounds; about 31,000 (8.9%) were called active. The shares of active, inactive and inconclusive entries below differ from those in the screen. Calls come from the whole dose curve; as a rule, active = well fitted inhibition curve with a large enough effect; inconclusive = small, poorly fitted or top-dose-only effect; inactive = no such curve, though single readings can be large or run the other way. A potency beside an inconclusive call is a rough fit, not a confirmed value.
% is set by controls: 0 for no effect and ±100 for the full control effect; potency is the fitted concentration of half-maximal effect; tags give direction and shape of the fitted curve.
Note: nearly all actives have a fitted effect of over 75% in size.

These compounds were tested against Histone-lysine N-methyltransferase EHMT2 (Homo sapiens) (UniProt Q96KQ7) (assay: qHTS Assay for Inhibitors of Histone Lysine Methyltransferase G9a). Conditions: G9a H3K9 monomethylation, AlphaScreen, 2 h; activity, negative = inhibition: at 59 µM (top of the series) unless noted.
Chain of UniProt Q96KQ7 (Q96KQ7 whole entry, looked up): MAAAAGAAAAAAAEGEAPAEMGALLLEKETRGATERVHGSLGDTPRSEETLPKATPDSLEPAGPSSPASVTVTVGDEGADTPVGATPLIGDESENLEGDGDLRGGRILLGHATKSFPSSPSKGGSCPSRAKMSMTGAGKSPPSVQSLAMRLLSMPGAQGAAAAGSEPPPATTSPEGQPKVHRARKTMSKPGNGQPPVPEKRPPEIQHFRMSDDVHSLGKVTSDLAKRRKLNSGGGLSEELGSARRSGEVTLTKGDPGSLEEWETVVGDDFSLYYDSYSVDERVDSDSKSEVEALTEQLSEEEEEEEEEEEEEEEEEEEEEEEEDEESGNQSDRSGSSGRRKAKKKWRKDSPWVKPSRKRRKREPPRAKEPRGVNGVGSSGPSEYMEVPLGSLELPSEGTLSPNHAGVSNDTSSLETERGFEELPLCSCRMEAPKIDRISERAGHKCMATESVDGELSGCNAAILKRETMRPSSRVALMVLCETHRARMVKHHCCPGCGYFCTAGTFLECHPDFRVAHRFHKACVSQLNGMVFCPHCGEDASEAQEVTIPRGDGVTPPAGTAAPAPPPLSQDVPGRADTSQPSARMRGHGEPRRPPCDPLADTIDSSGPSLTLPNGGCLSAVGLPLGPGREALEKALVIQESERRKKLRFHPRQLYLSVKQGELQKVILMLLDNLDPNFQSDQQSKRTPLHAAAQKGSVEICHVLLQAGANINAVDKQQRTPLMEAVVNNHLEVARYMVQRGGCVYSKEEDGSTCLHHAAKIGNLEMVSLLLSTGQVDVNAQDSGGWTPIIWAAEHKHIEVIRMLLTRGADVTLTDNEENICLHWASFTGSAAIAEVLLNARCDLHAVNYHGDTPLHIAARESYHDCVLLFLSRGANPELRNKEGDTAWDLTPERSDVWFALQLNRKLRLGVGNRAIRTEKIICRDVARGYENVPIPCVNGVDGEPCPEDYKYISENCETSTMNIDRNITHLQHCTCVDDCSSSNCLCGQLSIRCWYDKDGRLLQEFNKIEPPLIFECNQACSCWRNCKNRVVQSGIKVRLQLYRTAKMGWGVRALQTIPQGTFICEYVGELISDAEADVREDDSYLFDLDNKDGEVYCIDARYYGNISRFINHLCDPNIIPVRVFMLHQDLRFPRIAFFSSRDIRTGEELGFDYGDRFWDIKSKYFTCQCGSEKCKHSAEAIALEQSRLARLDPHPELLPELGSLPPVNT
Outline: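 Chemiluminescent proximity detection of H3K9 monomethylation, read after 10 min bead incubation in the dark. Reaction: 20 nM G9a, 500 nM biotin-H3K9 peptide, 20 uM SAM cofactor, 2 h, room temperature, following 15 min enzyme-compound preincubation.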
With `CC12CCCCC1N(O)C(=O)C(=O)N2O` (stereo not given) the Potency was inconclusive: 7.94 µM [inhibitor, full curve, poor fit].
`COc1cccc(NC(=S)NNC(=O)Cn2nc(C(F)F)cc2C(F)F)c1` was tested, and the Potency was inconclusive: 10 µM [inhibitor, partial curve, poor fit].
With `CC(=O)C(Sc1ncnc2sc3c(c12)CCCC3)C(C)=O` the Potency was inconclusive: 44.7 µM [inhibitor, partial curve, poor fit].
For `O=C(C1=C(O)C(=O)N(Cc2ccco2)C1c1cccc(O)c1)c1ccco1` (stereo not given), the Potency was active: 50.1 µM.
With `O=S(=O)(NC1CCCC1)c1ccccc1Br` the Potency was inconclusive: 0.631 µM [inhibitor, partial curve, poor fit].
In the case of `O=C(CCN=C1NS(=O)(=O)c2ccccc21)N1CCc2ccccc2C1`, the “activity, negative = inhibition” value is reported as inactive: -1.25% [at 102 µM].
`Cc1ccc(NC(=O)C(C)Sc2nnc(C3CC3)n2C2CC2)cc1S(=O)(=O)N1CCOCC1` (stereo not given) was tested, and the Potency was inconclusive: 0.398 µM [inhibitor, full curve, poor fit].
With `CCC(C)[C@H](NC(=O)OC(C)(C)C)C(=O)N/N=C/C1=Cc2ccccc2OC1` (stereo not given in full) the Potency was inconclusive: 8.91 µM [inhibitor, single point].
In the case of `CC(C)N(Cc1ccccc1)C(=S)NCCN1CCOCC1`, the Potency is reported as inconclusive: 56.2 µM [inhibitor, partial curve, poor fit].
In the case of `CC(C)C[C@H](N)C(=O)N1CCC(C(=O)N[C@H](C(=O)NCc2ccc(F)cc2)C(C)C)CC1`, the Potency is reported as inconclusive: 89.1 µM [inhibitor, single point].
With `COc1ccc(C(=O)N/N=C/c2sc(N3CCOCC3)nc2-c2ccccc2)cc1OC` the “activity, negative = inhibition” value was inactive: -1.93% [at 102 µM].
With `O=C(CCSc1nc2ccccc2o1)N1CCOCC1` the Potency was active: 14.1 µM.
In the case of `CC(C)CCN(C(=O)c1csnn1)C(C(=O)NC1CCCC1)c1ccccc1` (stereo not given), the Potency is reported as inconclusive: 2.51 µM [inhibitor, partial curve, poor fit].
`COc1ccc(C(CNS(=O)(=O)c2ccc(C)cc2)N2CCN(C)CC2)cc1` (stereo not given) was tested, and the Potency was inconclusive: 44.7 µM [inhibitor, partial curve, poor fit].
`CCN(C(=O)Cn1c(=O)n(-c2ccccc2)c(=O)c2ccc(C(=O)NCc3ccc4c(c3)OCO4)cc21)c1cccc(C)c1` was tested, and the “activity, negative = inhibition” value was inactive: -12%.
With `O=C1Nc2ccc([N+](=O)[O-])cc2OC1CCN1CCN(Cc2ccc3c(c2)OCO3)CC1` (stereo not given) the Potency was inconclusive: 79.4 µM [inhibitor, partial curve, poor fit].
`COc1ccc(-c2nc3cnc(N4CCNCC4)nc3n(-c3ccccc3)c2=O)cc1` was tested, and the activity, negative = inhibition was inactive: 12.3% [at 12.7 µM].
`Cc1ccc(S(=O)(=O)CC(=O)N2CCCCCC2)cc1` was tested, and the Potency was inconclusive: 56.2 µM [inhibitor, partial curve, poor fit].
With `CC1CC1C(=O)Nc1cc(S(=O)(=O)N2CCOCC2)ccc1N1CCCC1` (stereo not given) the Potency was inconclusive: 79.4 µM [inhibitor, single point].
For `CCOc1ccc(NC(=O)c2cc(S(=O)(=O)N3CCc4ccccc43)ccc2F)cc1`, the “activity, negative = inhibition” value was inactive: 4.8%.
With `CC1(C)CC(NC(=O)Nc2ccc([N+](=O)[O-])cc2)CC(C)(C)N1` the “activity, negative = inhibition” value was inactive: 4.02% [at 102 µM].
For `COc1cccc(Oc2ccc(C(F)(F)F)cc2NC(=O)CCc2nc3ccccc3c(=O)[nH]2)c1`, the Potency was inconclusive: 39.8 µM [inhibitor, partial curve].
In the case of `O=C(Oc1ccc2c3c(c(=O)oc2c1)CCCC3)c1ccco1`, the Potency is reported as inconclusive: 39.8 µM [inhibitor, single point].
With `COc1ccc(OC)c(CNc2ccc3c(c2)CCC3)c1` the Potency was active: 31.6 µM.
In the case of `Cc1csc(CCc2nc(C)cs2)n1`, the Potency is reported as inconclusive: 3.16 µM [inhibitor, partial curve, poor fit].
With `O=C(COc1ccccc1Br)NC1CC1` the Potency was inconclusive: 31.6 µM [inhibitor, partial curve].
`C[C@@H](NC(=O)/C(C#N)=C/c1ccc(O)c(O)c1)c1ccccc1` was tested, and the Potency was active: 1.41 µM and active: 2.82 µM.
For `CC(C)c1ccc(NC(=O)c2cc(S(=O)(=O)N(C)C3CCCCC3)ccc2F)cc1`, the “activity, negative = inhibition” value was inactive: 5.66%.
`Cc1ccc(-c2nc(SCC(=O)Nc3cc(S(=O)(=O)N4CCCCC4)ccc3Cl)n[nH]2)cc1` was tested, and the Potency was inconclusive: 1.78 µM [inhibitor, full curve].
For `CNC(=S)N/N=C/c1ccco1`, the “activity, negative = inhibition” value was inactive: 11.4% [at 102 µM].
For `CCC1CCc2c(sc(NC(=O)CSc3nc(-c4ccco4)cc(C(F)(F)F)n3)c2C#N)C1` (stereo not given), the “activity, negative = inhibition” value was inactive: -19.3%.
`CC(=O)N1N=C(N)SC1(C)C` was tested, and the Potency was inconclusive: 50.1 µM [inhibitor, partial curve].
In the case of `O=C(NNC(=O)c1ccccc1C(=O)O)c1ccc(O)cc1`, the Potency is reported as inconclusive: 3.98 µM [inhibitor, partial curve, poor fit].
`CCn1cc(S(=O)(=O)c2cccc(C)c2)c(=O)c2cc(F)c(N3CCCC(C)C3)cc21` (stereo not given) was tested, and the “activity, negative = inhibition” value was inactive: 6.4%.
In the case of `COC(=O)c1ccc(N=Nc2c(C)[nH]n(-c3ccccc3)c2=O)cc1`, the Potency is reported as active: 8.91 µM.
